# Results reported in publication PMC4336329 (PLoS ONE, 2015).
# The whole screen tested about 310,000 compounds, of which about 2,200 (0.71%) showed an effect of 50% or more. The effect is printed as a negative number. Some of the results follow.
# Target: human ether-à-go-go-related gene (hERG) potassium channel (human, UniProt Q12809)
# Assay: primary screen, population patch clamp on CHO cells stably expressing hERG
# Chain of human ether-à-go-go-related gene (hERG) potassium channel (Q12809 whole entry, looked up): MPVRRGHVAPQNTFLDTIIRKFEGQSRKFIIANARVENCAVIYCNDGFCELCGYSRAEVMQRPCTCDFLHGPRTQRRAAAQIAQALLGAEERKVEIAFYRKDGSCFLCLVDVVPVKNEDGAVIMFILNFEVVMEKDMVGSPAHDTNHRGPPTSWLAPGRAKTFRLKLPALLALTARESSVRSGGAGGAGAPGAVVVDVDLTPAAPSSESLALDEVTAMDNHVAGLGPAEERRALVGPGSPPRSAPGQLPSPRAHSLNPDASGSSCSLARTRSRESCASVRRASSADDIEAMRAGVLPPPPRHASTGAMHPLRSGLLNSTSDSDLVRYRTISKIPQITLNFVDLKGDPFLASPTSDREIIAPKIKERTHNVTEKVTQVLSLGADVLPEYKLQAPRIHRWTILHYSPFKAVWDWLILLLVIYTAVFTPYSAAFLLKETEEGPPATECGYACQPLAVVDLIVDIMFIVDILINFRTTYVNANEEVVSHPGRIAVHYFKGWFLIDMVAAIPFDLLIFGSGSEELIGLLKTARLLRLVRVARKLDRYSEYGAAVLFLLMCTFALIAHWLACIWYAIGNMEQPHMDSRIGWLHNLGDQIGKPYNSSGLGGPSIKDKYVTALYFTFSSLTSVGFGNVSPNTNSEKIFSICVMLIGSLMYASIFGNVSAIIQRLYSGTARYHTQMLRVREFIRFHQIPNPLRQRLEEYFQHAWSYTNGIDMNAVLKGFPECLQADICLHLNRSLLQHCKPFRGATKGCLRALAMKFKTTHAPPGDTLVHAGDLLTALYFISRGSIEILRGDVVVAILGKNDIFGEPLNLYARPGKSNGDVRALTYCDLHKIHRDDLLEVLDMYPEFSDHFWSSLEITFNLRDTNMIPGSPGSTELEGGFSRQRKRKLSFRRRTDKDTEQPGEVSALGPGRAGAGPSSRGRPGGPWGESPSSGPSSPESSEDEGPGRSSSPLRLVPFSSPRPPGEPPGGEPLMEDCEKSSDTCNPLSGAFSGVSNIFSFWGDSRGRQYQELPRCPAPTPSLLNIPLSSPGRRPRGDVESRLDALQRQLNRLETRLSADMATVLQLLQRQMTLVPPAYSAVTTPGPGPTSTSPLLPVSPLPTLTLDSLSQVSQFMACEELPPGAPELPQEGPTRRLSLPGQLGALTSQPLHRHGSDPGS
row,Compound,"hERG current change (%, negative = inhibition) at 1uM"
1,CC1(C)Cc2c(sc3nc(-c4ccccc4)n(N)c(=O)c23)CO1,11.7%
2,O=C(O)c1sc2ncccc2c1OCc1ccccc1,8%
3,Cc1c(Cl)cccc1NC(=S)N1CCN(c2ccccn2)CC1,9.46%
4,C=CCN=C1SC(C)C(=O)N1S(=O)(=O)c1ccccc1 (stereo not drawn),4.31%
5,NC(=O)c1ccc(NC(=O)COC(=O)CCCc2c[nH]c3ccccc23)cc1,19.6%
6,O=C(Nc1cc(C(F)(F)F)ccc1N1CCOCC1)c1ccccc1F,13.3%
7,CCCCNC(=O)CCc1c(C)nc2c(c(C)nn2-c2ccccc2)c1C,-1.82%
8,O=C(Oc1cccc2c(=O)[nH]ccc12)c1ccccc1,-0.679%
9,N#C/C(=C\C=C\c1ccccc1)C(=O)NCc1cccnc1,11.2%
10,CC(=O)Nc1ccc(NC(=O)C2CCCN(S(=O)(=O)c3ccc(-n4cnnn4)cc3)C2)cc1 (stereo not drawn),3.32%
11,O=S1(=O)CCN(Cc2ccc(Cl)cc2)CC1,7.85%
12,CCOC(=O)COc1c(OC)cc(Cl)cc1C1Nc2ccccc2C(=O)N1c1ccc(F)cc1 (stereo not drawn),6.54%
13,Cc1ccc(S(=O)(=O)/N=c2\scc(C)n2C)cc1,-0.124%
14,COc1ccc(/C=C(\NC(=O)c2ccc(OCC(C)C)cc2)C(=O)OCc2ccco2)cc1,8.71%
15,COc1cccc(C(=O)Nc2ccc3c(c2)n(C)c(=O)n3C)c1,11.5%
16,CNC(=O)c1nc(C)c(C2(C)CC(c3ccccc3)=NO2)s1 (stereo not drawn),17.9%
17,COC(=O)c1ccc(C(=O)O)nc1,13.6%
18,CCCCNCC(=O)Nc1sc(C)c(C)c1C(=O)OCC,8.25%
19,CCOC(=O)N1CCC(NC(=O)c2ccc3c(c2)N(CC)CCS3)CC1,2.69%

row,Compound,"hERG current change (%, negative = inhibition) at 1uM"
1,CCN1CCc2c(C#N)c(NCc3ccccc3)nc(N(CC)CC)c2C1,-13.2%
2,COc1ccc(-c2nnc(-c3ccc(N(C)C)cc3)o2)cc1,7.15%
3,Nn1c(Cc2ccc(Br)cc2)n[nH]c1=S,10.6%
4,O=C(CCN1C(=O)/C(=C/c2ccccc2)SC1=S)N[C@@H](CO)Cc1ccccc1,20.6%
5,CCCCCCCCN1[C@@H](CC(=O)O)c2cc(C(F)(F)F)ccc2S1(=O)=O,15.7%
6,O=C(O)C1CC(O)CN1S(=O)(=O)c1cccs1 (stereo not drawn),15.3%
7,COc1ccccc1N1CCN(C(=O)C(Cc2ccccc2)NC(=O)C2CCCCC2)CC1 (stereo not drawn),3.3%
8,O=C(COc1c(CO)cc(Br)cc1CO)NC1CCCc2ccccc21 (stereo not drawn),8.62%
9,Cc1ccc(S(=O)(=O)NNC(=O)C(=O)NNc2ccccn2)cc1,5.54%
10,O=C(NCc1nc2ccccc2[nH]1)c1ccc([N+](=O)[O-])cc1,6.75%
11,CCN(CC)C(=O)c1[nH]cnc1C(=O)N[C@@H](Cc1ccccc1)C(=O)OC(C)(C)C,1.41%
12,CC(C)(C)c1ccc(COn2ccnc2)cc1,21%
13,Cc1cc(C)n(-c2ccc(C(=O)NC3=NCCS3)cc2)n1,7.99%
14,CCOC(=O)C1(Cc2cccc(OC)c2)CCN(Cc2cnc(N)nc2)CC1,5.79%
15,CCOc1ccc(CCNC(=O)CN2C(=O)NC3(CCCCC3)C2=O)cc1OCC,-5.56%
16,CC(C)(CNC(=O)c1ccc(-c2cccc(C(F)(F)F)c2)o1)N1CCOCC1,-19.6%
17,CCn1c(N2CCN(CC(=O)c3c(C)n(C)c4ccccc34)CC2)nc2c1c(=O)[nH]c(=O)n2C,-3.11%
18,Cc1ccccc1NC(=O)CN(C)S(=O)(=O)c1ccc(-c2ccc(=O)[nH]n2)s1,-47.7%
19,Cc1nc(-c2ccc(Cl)cc2)sc1C1(C)CC(c2ccc(C#N)cc2)=NO1 (stereo not drawn),6.37%

row,Compound,"hERG current change (%, negative = inhibition) at 1uM"
1,Cc1nc(-c2ccc(S(=O)(=O)N3CCCCCC3)cc2)cs1,12.4%
2,Cc1cc(C(=O)CSc2nnnn2-c2ccccc2)c(C)n1CC1CCCO1 (stereo not drawn),-0.214%
3,O=C(O)c1cccc(CN2C(=O)SC(Nc3cccc4ccccc34)C2=O)c1 (stereo not drawn),-1.25%
4,COc1ccc(-c2ccc(=O)n(CC(=O)NC3CCc4ccccc43)n2)cc1OC (stereo not drawn),-0.033%
5,CC1CN(C(C)C)C(C)CC1OC(=O)c1ccccc1 (stereo not drawn),16.7%
6,CC(=O)NC(Cc1ccc(N(CCCl)CCCl)cc1)C(=O)O (stereo not drawn),6.69%
7,O=C(CN1CCN(C(=O)c2ccco2)CC1)Nc1ccc(Cl)c(C(F)(F)F)c1,-32.5%
8,C[C@]12C=CC(=O)C=C1CC[C@@H]1C2CC[C@]2(C)OC(=O)CCC12 (stereo partly drawn),10.8%
9,CCOC(=O)c1c(CC(C)C)csc1/N=C/C1C(=O)CC(C)(C)CC1=O,14.1%
10,Cc1cc2nnc(SCC(=O)NC3CCCCC3)n2c(N)n1,13.1%
11,O=C(Nc1cc(C(F)(F)F)ccc1F)C1CCCCC1,-6.98%
12,Cc1ccc(C(=O)COC(=O)CNC(=O)Cc2ccccc2)cc1,2.2%
13,CCOC(=O)CNC(=O)C(Cc1ccccc1)NS(=O)(=O)c1ccc2c(c1)CCC(=O)N2 (stereo not drawn),3.37%
14,COCCN(CC(=O)Nc1cccc(C)c1C)C(=O)c1ccc2ccccc2n1,5.04%
15,COC(=O)c1sccc1NC(=O)CC1C(=O)NCCN1C(=O)Nc1ccc(OCc2ccccc2)cc1 (stereo not drawn),-0.342%
16,CCOC(=O)C1(CCOc2ccccc2)CCN(Cc2cccc(OC)c2)CC1,-24.4%
17,CC(C)n1c(CCCO)nc2ccccc21,4.55%
18,O=C(Oc1ccc(C(=S)N2CCCCC2)cc1)c1ccccc1F,8.51%
19,CC(C)(C)C(=O)C1=C(O)C(=O)N(Cc2ccccc2)C1c1ccccc1F (stereo not drawn),19.5%
